# Measurements as given in PubChem BioAssay AID720709 (National Center for Advancing Translational Sciences (NCATS), 2013).
# The campaign covered roughly 360,000 compounds. About 520 (0.14%) were called active. The inconclusive results got no clear call from the source; some entries with a clear call stand among them for comparison. Calls follow the shape of the dose curve; as a rule, active = well fitted inhibition curve with a large enough effect; inconclusive = small, poorly fitted or top-dose-only effect; inactive = no such curve, though single readings can be large or run the other way. No potency is given beside an inconclusive call; the fits are too rough.
# Target: Rap guanine nucleotide exchange factor 3 (Homo sapiens) (UniProt O95398)
# UniProt O95398, sequence (O95398 whole entry, looked up): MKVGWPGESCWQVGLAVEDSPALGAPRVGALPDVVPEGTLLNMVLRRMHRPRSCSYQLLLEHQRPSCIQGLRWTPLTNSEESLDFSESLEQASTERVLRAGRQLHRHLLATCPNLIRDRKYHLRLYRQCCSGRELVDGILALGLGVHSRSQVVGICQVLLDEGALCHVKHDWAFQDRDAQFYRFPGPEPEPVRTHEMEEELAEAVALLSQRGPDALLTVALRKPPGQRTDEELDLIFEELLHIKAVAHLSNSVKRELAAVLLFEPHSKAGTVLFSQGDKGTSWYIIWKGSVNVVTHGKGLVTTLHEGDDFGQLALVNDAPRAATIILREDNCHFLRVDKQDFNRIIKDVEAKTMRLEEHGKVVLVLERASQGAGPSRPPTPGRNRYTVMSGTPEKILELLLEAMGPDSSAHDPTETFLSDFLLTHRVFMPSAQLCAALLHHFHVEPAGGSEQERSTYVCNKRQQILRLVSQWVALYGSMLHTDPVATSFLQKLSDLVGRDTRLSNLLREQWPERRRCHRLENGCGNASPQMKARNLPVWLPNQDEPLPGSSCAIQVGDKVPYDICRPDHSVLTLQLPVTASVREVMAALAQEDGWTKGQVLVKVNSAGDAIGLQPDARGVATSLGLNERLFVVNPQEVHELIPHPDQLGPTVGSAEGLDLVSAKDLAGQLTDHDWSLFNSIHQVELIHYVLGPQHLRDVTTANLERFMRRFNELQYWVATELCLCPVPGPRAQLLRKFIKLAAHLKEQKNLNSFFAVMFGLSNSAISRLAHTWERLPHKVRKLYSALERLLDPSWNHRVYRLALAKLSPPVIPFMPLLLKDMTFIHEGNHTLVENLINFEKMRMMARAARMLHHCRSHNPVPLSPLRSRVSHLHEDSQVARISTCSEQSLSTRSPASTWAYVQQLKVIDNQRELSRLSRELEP
# Assay: qHTS for Antagonist of cAMP-regulated guanine nucleotide exchange factor 3 (EPAC1): primary screen; also: nearly all actives have a fitted effect of over 50% in size;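 as to activity change, negative = inhibition: plate controls were vehicle for no effect and positive control for full effect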
# Conditions: EPAC1 GEF assay, Rap1b-BODIPY-GDP exchange fluorescence; activity change, negative = inhibition: at 115 µM (top of the series)
# Potency is read from the fitted curve at half-maximal effect; tags tell the direction and shape of the fitted curve.
SMILES,Potency,"activity change, negative = inhibition"
CC(NC(=O)CCNC(=O)c1ccc(Br)cc1)c1ccc(S(N)(=O)=O)cc1 (stereo unspecified),"inconclusive [inhibitor, full curve]",–
CC(=Cc1ccccc1)C=C1SC(=S)N(CCCC(=O)Nc2ccc(C(=O)O)cc2)C1=O,"inconclusive [inhibitor, full curve]",–
NS(=O)(=O)c1ccc(CCNc2ccn3nc(-c4ccc(OCCN5CCOCC5)cc4)cc3n2)cc1,inactive,–
Cc1ccc(C(=O)N2CC(=O)Nc3ccccc32)o1,–,inconclusive: 29.8% [inhibitor]
CCCCC[C@H](O)/C=C/C1C(=O)C=C[C@H]1C/C=C\CCCC(=O)OC (stereo partly specified),"inconclusive [inhibitor, partial curve]",–
CCOc1ccc(S(=O)(=O)N2CCN(C(=O)c3oc4ccccc4c3C)CC2)cc1,"inconclusive [inhibitor, full curve]",–
O=C(Nc1cc(S(=O)(=O)N2CCOCC2)ccc1N1CCOCC1)c1cc2c(s1)CCC2,"inconclusive [inhibitor, partial curve, poor fit]",–
COc1cccc(C(C[N+](=O)[O-])c2c(C)[nH]n(-c3ccccc3)c2=O)c1 (stereo unspecified),"inconclusive [inhibitor, partial curve]",–
Cc1cc(NC(=O)NC(=O)c2ccccc2)no1,inactive,–
Cc1c(NC(=O)c2ccccc2N)cccc1C(=O)O,"inconclusive [inhibitor, single point]",–
CC(C)C[C@H](NC(=O)OC(C)(C)C)c1nnc(SCc2ccccc2)o1,"inconclusive [inhibitor, single point]",–
COc1ccc(-c2cn3cccnc3n2)cc1,"inconclusive [inhibitor, single point]",–
S=c1[nH]nc(-c2ccc(Cl)cc2)n1-c1ccc(Cl)cc1,inactive,–
Cn1c(=O)n(C)c2cc(NC(=O)c3ccccc3[N+](=O)[O-])c(Br)cc21,"inconclusive [inhibitor, partial curve, poor fit]",–
Cc1ccc(S(=O)c2ccc([N+](=O)[O-])c3nonc23)cc1 (stereo unspecified),"inconclusive [inhibitor, full curve, poor fit]",–
COc1cc2c(cc1OC)C(c1cccc(Br)c1)NC(=O)C2 (stereo unspecified),"inconclusive [inhibitor, full curve, poor fit]",–
CNC[C@@H]1Oc2cc(Br)ccc2S(=O)(=O)N([C@H](C)CO)C[C@@H]1C,"inconclusive [inhibitor, full curve, poor fit]",–
Cc1ccc(S(=O)(=O)N2CCOCC2)cc1NC(=O)CSc1nnnn1C,"inconclusive [inhibitor, partial curve]",–
CCN(C(=O)COC(=O)/C=C/c1ccco1)C1CCCCC1,inactive,–
COCc1nc2ccccc2n1CCc1ccccc1,"inconclusive [inhibitor, single point]",–
O=C(COC(=O)c1ccc([N+](=O)[O-])s1)NCc1ccc(F)cc1,"inconclusive [inhibitor, partial curve]",–
NC(=S)Nc1nc2ccccc2s1,inactive,–

SMILES,Potency,"activity change, negative = inhibition"
COc1ccc(Nc2nnc(SCc3cn4c(C)cccc4n3)s2)cc1,"inconclusive [inhibitor, single point]",–
CC(C)(CNC(=O)c1ccc(-c2ccccc2Cl)o1)N1CCOCC1,inactive,–
CCOc1ccc(N=C(/C(C(=O)C(=O)N2CCOCC2)=C(\O)c2ccccc2)c2ccccc2)cc1,inactive,–
Cc1ccn(S(=O)(=O)c2ccc(C(C)(C)C)cc2)n1,inactive,–
CC(=O)Nc1ccc(NC(=O)CN(C)S(=O)(=O)c2ccc3ccccc3c2)cc1,inactive,–
CCN1C(N(C)C)=NC[C@@H]1Cc1ccccc1,inactive,–
CC(C)(C)OC(=O)N1CCN(c2ccc(NC(=O)Cn3nnc(-c4ccccc4)n3)cc2)CC1,"inconclusive [inhibitor, full curve]",–
CCC(OC(=O)CN1C(=O)c2ccccc2C1=O)C(=O)NC1CCCC1 (stereo unspecified),"inconclusive [inhibitor, full curve, poor fit]",–
O=C(CN1CCN(c2ccc(Cl)cc2)CC1)Nc1cccc(F)c1,"inconclusive [inhibitor, full curve, poor fit]",–
NS(=O)(=O)c1ccc(Nc2ccc([N+](=O)[O-])c3nonc23)cc1,"inconclusive [inhibitor, single point]",–
CCOc1ccc(CCN2C(=S)N([C@@H](CC(C)C)CN3CCCC3CN3C(=S)NC[C@@H]3CC(C)C)C[C@@H]2CC(C)C)cc1 (stereo partly specified),"inconclusive [inhibitor, single point]",–
Cc1ccc(S(=O)(=O)CC(O)COc2ccc(F)cc2Cl)c(C)c1 (stereo unspecified),"inconclusive [inhibitor, full curve]",–
O=C(/C=C/c1ccccc1)CCN1CCCCC1,inactive,–
NS(=O)(=O)c1ccc(CCNC(=O)CSCc2ccccc2)cc1,"inconclusive [inhibitor, single point]",–
Cn1c(C(=O)NCCCN2CCN(c3ccc(F)cc3)CC2)cc2c(=O)n(C)c3ccccc3c21,"inconclusive [inhibitor, partial curve]",–
CC(C)C(NC(=O)C1CC(=O)N(Cc2ccccc2)C1)c1nc2ccccc2[nH]1 (stereo unspecified),"inconclusive [inhibitor, single point]",–
CCn1cc(SCC(=O)N2CCc3ccccc32)c2ccccc21,"inconclusive [inhibitor, single point]",–
COc1ccc(/C=C/C(=O)Nc2ccc3c(c2)CCC3)cc1OC,"inconclusive [inhibitor, partial curve]",–
Oc1ccc(/C=N/N=C/c2ccc(O)c(O)c2)cc1O,"inconclusive [inhibitor, full curve]",–
Cc1ccc(C)c(S(=O)(=O)N2CCN(C(=O)CCC(=O)NCc3ccc(Cl)cc3Cl)CC2)c1,"inconclusive [inhibitor, partial curve]",–
CCN(C(=O)CN1C(=O)COc2ccc(S(=O)(=O)N3CCCCCC3)cc21)c1cccc(C)c1,"inconclusive [inhibitor, partial curve]",–
O=C(Nc1cccc(Cl)c1)OCc1cnc(Cl)s1,inactive,–

SMILES,Potency,"activity change, negative = inhibition"
Cc1nc(NC(=O)CN2CCN(c3cccc(Cl)c3)CC2)sc1C(=O)N(C)C,"inconclusive [inhibitor, single point]",–
COc1ccccc1N1CCN(C(=O)c2cc(=O)c3cc(C)cc(C)c3o2)CC1,"inconclusive [inhibitor, partial curve, poor fit]",–
OCCCNC(=S)Nc1ccc(Br)cc1Cl,inactive,–
O=C(O)c1ccc(Nc2ccc([N+](=O)[O-])c3nonc23)cc1,"inconclusive [inhibitor, full curve]",–
CC(=O)c1ccc(NC(=O)CCNS(=O)(=O)c2cc(Br)cnc2N)cc1,"inconclusive [inhibitor, full curve, poor fit]",–
CN1CCN(c2ccc(NC(=O)CSc3ccccc3)cc2F)CC1,"inconclusive [inhibitor, single point]",–
Cc1ccccc1-c1n[nH]c(=S)n1/N=C/C=C/c1ccco1,"inconclusive [inhibitor, partial curve]",–
Cc1cc(C(=O)COC(=O)C(C)NC(N)=O)c(C)n1Cc1ccco1 (stereo unspecified),"inconclusive [inhibitor, partial curve]",–
Cc1cccc(NC(=O)C(=O)NNC(=O)c2ccc(C(C)(C)C)cc2)c1,"inconclusive [inhibitor, full curve, poor fit]",–
COc1cccc(Cn2nnc(C(=O)Nc3ccc(C)cc3)c2N)c1,"inconclusive [inhibitor, partial curve, poor fit]",–
Oc1ccc(N=Cc2ccc(-c3cccs3)s2)cc1,active: 31.6 µM,–
O=C(C(Cc1ccccc1)n1cccc1)N1CCN(c2ncccn2)CC1 (stereo unspecified),"inconclusive [inhibitor, single point]",–
CCC1CCCCN1CCCNC(=O)CN1C(=O)COc2ccc(S(=O)(=O)N3CCC(C)CC3)cc21 (stereo unspecified),"inconclusive [inhibitor, single point]",–
O=C(Nc1ccc(Cl)c(Cl)c1)c1ccc(Cl)c(Cl)c1,inactive,–
COC(=O)C1=C(C(=O)OC)C(c2ccccc2O)c2sc(=O)[nH]c2S1 (stereo unspecified),"inconclusive [inhibitor, full curve, poor fit]",–
O=[N+]([O-])c1cc(S(=O)(=O)N2CCCCCC2)ccc1F,"inconclusive [inhibitor, single point]",–
Cc1cc(Br)ccc1NC(=S)NC1CCCC1,"inconclusive [inhibitor, partial curve]",–
Cc1nc2ccc(NC(=O)C3CCCCC3)cc2s1,"inconclusive [inhibitor, full curve]",–
O=C(NCC(=O)N(CCN1CCOCC1)C(C(=O)NC1CCCC1)c1ccccc1)c1cccs1 (stereo unspecified),"inconclusive [inhibitor, full curve, poor fit]",–
Cc1ccc(CNC(=O)c2ccc(NS(=O)(=O)c3cccs3)cc2)cc1,"inconclusive [inhibitor, full curve, poor fit]",–
CC(=O)c1cccc(-c2ccc3c(c2)C(C)(Cc2ccccc2C#N)C(=O)N3)c1 (stereo unspecified),"inconclusive [inhibitor, single point]",–
CC(C)(C)OC(=O)NCCCC[C@H](NC(=O)c1nc[nH]c1C(=O)N1CCN(c2ccccc2)CC1)C(=O)OC(C)(C)C,"inconclusive [inhibitor, full curve, poor fit]",–
